In the supplement of paper PMC11876631:
Numbering of substitutions follows the chain as printed. In names and notes the source's numbering stands. ± gives the standard deviation of the averaged measurements. Laboratory Escherichia coli strains with one amino-acid change in an essential protein, pooled on minimal glucose agar with carbenicillin or gentamicin at twice the control MIC (plus kanamycin and chloramphenicol for the plasmids), 48 h. Fold change of barcode share against drug-free plates; higher = less susceptible. Active = above 20 in both replicates (the paper's putatively resistant). '<' = one read or none on drug, '>' = one read or none on a drug-free plate. Shares are relative, so most strains fall below 1 when a few take over. Listed are strains with at least 15 reads on both drug-free plates, and hits; most hits rest on fewer reference reads. Replicate rank correlation about 0.5. Edits are read from barcodes.

B1: mreC I26W (protein)
chain: MKPIFSRGPSLQIRLILAVLVALGIWIADSRLGTFSQIRTYMDTAVSPFYFVSNAPRELLDGVSQTLASRDQLELENRALRQELLLKNSELLMLGQYKQENARLRELLGSPLRQDEQKMVTQVISTVNDPYSDQVVIDKGSVNGVYEGQPVISDKGVVGQVVAVAKLTSRVLLICDATHALPIQVLRNDIRVIAAGNGCTDDLQLEHLPANTDIRVGDVLVTSGLGGRFPEGYPVAVVSSVKLDTQRAYTVIQARPTAGLQRLRYLLLLWGADRNGANPMTPEEVHRVANERLMQMMPQVLPSPDAMGPKLPEPATGIAQPTPQQPATGNAATAPAAPTQPAANRSPQRATPPQSGAQPPARAPGGQ
B2: mreC I26Q (protein)
chain: B1 chain with W26Q
B3: mreC I27Q (protein)
chain: B1 chain with W26I, I27Q
B4: mreC I26D (protein)
chain: B1 chain with W26D
B5: mreC I27W (protein)
chain: B1 chain with W26I, I27W
B6: mreC I27A (protein)
chain: B1 chain with W26I, I27A
B7: mreC I27D (protein)
chain: B1 chain with W26I, I27D

Each protein was assayed against Escherichia coli (laboratory strain) (assay: barcode share on antibiotic plates over drug-free plates; higher = less susceptible). Settings: antibiotic: carbenicillin; 2× MIC (3.1 µg/mL).
Method: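 A pool of E. coli strains, each edited to carry one amino-acid change in an essential protein, was grown for 48 h on minimal glucose agar with or without antibiotic; strain barcodes were sequenced; mean of two replicates.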

Protein | fold change of barcode share
B1 | 0.286 ± 0.21
B2 | 0.473 ± 0.099
B3 | 1.09 ± 1.1
B4 | 1.02 ± 0.098
B5 | 0.409 ± 0.12
B6 | 1.25 ± 0.37
B7 | 1.13 ± 1.1

Same assay, conditions: antibiotic: gentamicin; 2× MIC (MIC 0.45 µg/mL)

Protein | fold change of barcode share
B1 | < 0.00801
B2 | 0.0134 ± 0.007
B3 | 0.00981 ± 0.0049
B4 | < 0.00981
B5 | < 0.00766
B6 | < 0.00565
B7 | < 0.00812
